# Assay results as given in publication PMC4336329 (PLoS ONE, 2015).
# Out of some 310,000 compounds screened, about 2,200 (0.71%) showed an effect of 50% or more. Effects have a minus sign here. The list shows a part of the results.
# Target: human ether-à-go-go-related gene (hERG) potassium channel (human, UniProt Q12809)
# Test: primary screen, population patch clamp on CHO cells stably expressing hERG
# Chain of human ether-à-go-go-related gene (hERG) potassium channel (Q12809 whole entry, looked up): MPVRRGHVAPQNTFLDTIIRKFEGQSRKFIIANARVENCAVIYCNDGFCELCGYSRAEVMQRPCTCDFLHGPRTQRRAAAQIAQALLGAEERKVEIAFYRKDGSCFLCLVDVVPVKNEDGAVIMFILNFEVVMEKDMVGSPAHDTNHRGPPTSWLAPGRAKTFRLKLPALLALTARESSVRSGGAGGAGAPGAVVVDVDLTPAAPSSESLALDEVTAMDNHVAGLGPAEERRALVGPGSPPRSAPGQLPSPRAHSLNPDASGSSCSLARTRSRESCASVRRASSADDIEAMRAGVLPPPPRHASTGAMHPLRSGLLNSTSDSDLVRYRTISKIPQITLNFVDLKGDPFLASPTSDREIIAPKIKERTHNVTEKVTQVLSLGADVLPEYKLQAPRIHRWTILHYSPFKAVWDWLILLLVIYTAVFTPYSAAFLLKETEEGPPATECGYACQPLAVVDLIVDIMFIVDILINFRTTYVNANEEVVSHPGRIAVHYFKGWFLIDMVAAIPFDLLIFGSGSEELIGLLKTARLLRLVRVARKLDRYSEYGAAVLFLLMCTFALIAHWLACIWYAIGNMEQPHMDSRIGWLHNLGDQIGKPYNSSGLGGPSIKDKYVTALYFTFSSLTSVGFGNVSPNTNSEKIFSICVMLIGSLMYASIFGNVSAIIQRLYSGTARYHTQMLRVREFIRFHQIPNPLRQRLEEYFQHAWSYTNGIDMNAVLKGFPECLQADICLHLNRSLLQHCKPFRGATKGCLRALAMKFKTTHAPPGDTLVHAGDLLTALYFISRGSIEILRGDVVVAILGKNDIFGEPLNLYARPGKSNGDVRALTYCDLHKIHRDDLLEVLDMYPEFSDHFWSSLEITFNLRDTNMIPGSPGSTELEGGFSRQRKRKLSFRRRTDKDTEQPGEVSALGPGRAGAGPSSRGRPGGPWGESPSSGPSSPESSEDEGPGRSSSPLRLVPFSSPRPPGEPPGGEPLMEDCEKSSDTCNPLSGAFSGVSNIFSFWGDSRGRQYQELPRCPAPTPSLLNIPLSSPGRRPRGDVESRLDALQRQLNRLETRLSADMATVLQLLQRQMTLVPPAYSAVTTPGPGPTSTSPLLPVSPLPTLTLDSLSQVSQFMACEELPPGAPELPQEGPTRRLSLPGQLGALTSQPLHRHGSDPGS
row,SMILES,"hERG current change (%, negative = inhibition) at 1uM [%]"
1,COc1ccc(S(=O)(=O)N2CCN(CC(O)COc3ccc(CC#N)cc3)CC2)cc1OC (stereo not drawn),10.5
2,Cn1c(=O)n(Cc2ccccc2)c(=O)c2c1nc(NCC1CCCO1)n2Cc1ccccc1 (stereo not drawn),3.58
3,Nc1nc(Sc2ccc([N+](=O)[O-])cc2[N+](=O)[O-])n[nH]1,14.5
4,CCOC(=O)Cc1[nH]nc2c1C(c1cc(OC)ccc1OC)C(C#N)=C(N)O2 (stereo not drawn),14.9
5,Cc1ccc(N(CC(=O)NCC2CCCO2)S(C)(=O)=O)cc1Cl (stereo not drawn),14.4
6,O=[N+]([O-])c1cc(F)c(N2CCCC2)cc1Br,15.1
7,CSc1ccccc1NC(=O)NCCCl,11
8,CCOC(=O)c1c(C)[nH]c(N=Nc2ccccc2C)c1C,13
9,CC1Cc2ccccc2N1C(=O)Cn1cnc2c1c(=O)n(C)c(=O)n2C (stereo not drawn),15.1
10,COc1ccc(CCNC(=O)C(=O)c2c[nH]c3ccccc23)cc1OC,9.47
11,CCOC(=O)CCSc1nnc(-c2cccnc2)n1-c1ccccc1OC,7.5
12,COc1ccc(NC(=S)N(CCc2c(C)[nH]c3ccccc23)Cc2ccco2)cc1,9.71
13,COC(=O)c1cc(-c2cc(OC)ccc2OC)nc2c1c(=O)n(C)c(=O)n2Cc1ccccc1,20.5
14,COC(=O)c1cc(NC(=O)c2cc(-c3ccc(OC)cc3)oc2C(F)(F)F)ccc1N1CCOCC1,-7.46
15,Cc1cc(C(=O)C(=O)N(C)C)c(C)n1-c1ccc(Cl)c(Cl)c1,3.71
16,CCOC(=O)Nc1sc2nc(C)cc(C)c2c1-n1cccc1,10.6
17,CCCCCCCC(=O)NNC(=O)CCC(=O)O,11.6
18,COc1cc(NC(=O)c2ccc(Br)o2)c(C(=O)O)cc1OC,15.5
19,Cc1nc2ccc(NC(=O)COc3ccccc3[N+](=O)[O-])cc2s1,15.3
20,Cc1c(NC(=O)C(C)OC(=O)CNC(=O)c2ccccc2)c(=O)n(-c2ccccc2)n1C (stereo not drawn),-4.79
21,CC(NC(=O)c1cc(S(=O)(=O)N(C)C)ccc1N1CCCC1)C1CC2CCC1C2 (stereo not drawn),-1.38
22,CC(C)(C)c1cc(=O)n(-c2ccccc2)[nH]1,9.5
23,CCOc1cccc(CNc2ccc(O)cc2)c1OCc1ccc(Cl)cc1,14.4

row,SMILES,"hERG current change (%, negative = inhibition) at 1uM [%]"
1,CCNC(=S)N1C2CCC1CC(NC(=O)NC1CCCCC1)C2 (stereo not drawn),5.51
2,Cc1cccc(-c2c(NC(=O)c3ccco3)oc3c(C)cccc3c2=O)c1,13.1
3,NC(=O)C1CCN(C(=O)CCc2ccsc2)CC1,13.7
4,CN(C)C=Nc1nonc1-c1ncn[nH]1,7.39
5,Cc1ccccc1C(=NC(=O)c1ccccc1)c1ccccc1,-0.799
6,CCOC(=O)CCC(=O)Nc1ccccc1C(N)=O,0.175
7,CCOc1ccc(-n2c(SCC(=O)NCc3ccco3)nc3c([nH]c4ccccc43)c2=O)cc1,5.3
8,Nc1nc2ccc(Cl)cc2c2nc(-c3ccco3)nn12,12.5
9,O=C1CCCC(O)=C1N=Nc1c(Cl)cc(C(F)(F)F)cc1Cl,14.6
10,COc1ccccc1N=Cc1c(O)c2ccccc2oc1=O,1.01
11,COc1ccc(CNC(=O)C/C(C)=N/NC(=O)Cc2ccc(OC)cc2)cc1,16.9
12,C=CCN=C(NC#N)SCCc1ccccc1,11.8
13,CCOc1ccc(S(=O)(=O)N2CCC(C(=O)NCCc3ccccc3)CC2)cc1,16.6
14,O=C(NCCCNC(=O)c1cccs1)c1cccs1,12
15,Cc1cnc(C(=O)OCC(=O)c2c[nH]c3ccccc23)cn1,8.34
16,Cc1ccc(NC(=O)c2ccc(C(C)(C)C)cc2)cc1[N+](=O)[O-],11.2
17,CCOC(=O)Nc1ccc(S(=O)(=O)NCCCN2CCOCC2)cc1,2.7
18,O=C(COC(=O)CNC(=O)c1ccc([N+](=O)[O-])o1)Nc1ncc(Cl)cc1Cl,-10.7
19,COc1ccc(N(CC(=O)NCc2ccc(Cl)cc2)S(=O)(=O)c2c(C)noc2C)cc1,13.8
20,Cc1[nH]c2ccccc2c1C(=O)C(=O)N1CCOCC1,11.4
21,Cc1ccc2[nH]c3c(c2c1)CCCC3NC(=O)CCl (stereo not drawn),13.7
22,CCCCC[C@H](O)/C=C/[C@@H]1[C@@H](CCCCCCC(=O)O)[C@@H](O)C[C@H]1O,11
